Read counts are not given, so values of variants with three or more changes are uncertain.
B1: OR4K15 (parent)
chain: GUUAACGGUCAUAGGCCAUGGAAACUAGGAGCACCAUUUCGCUGCCAGUGAAGAAAUGAACAAAGAAAAUCUGGGCCAGGCAGGCAUCAAAAGAAAUAGUCUUGCGCUCAACCAGAAAGUCUGUAAUCAUUUUAAGGGUA

Variants of: B1
Assay: self-cleavage, relative activity (ratio to wild type); higher = more cleavage; in vitro, sequencing; the parent is a self-cleaving ribozyme

Variant	self-cleavage
U2C A5C A62G U72C	0.18
U9A U97G A110G	0.08
A59G A60G A62G	1.17
A56G A60G U127A	1.26
A47U A52U A78G	0.09
A59G A68G U70C U72C U97C	0.16
A33G A64G A90G U122C U130C	0.16
A36G U43C A55G A135G	2.1
U3C A22G A68G	1.89
U37C U39C C46U A126U	0.9
A54G A63G U132C	1.44
A114U A118G U131C	0.02
A11U U43C A78G U100C	0.37
U49C A62G A64U A95G	1.2
A23G A51G A56U A126U U139C	0.71
A68G A89U U100C	2.29
A24G A30G U49C A90U A98U	0.62
U39C A60C A64G	1
A5G A18U A60G	0.82
A36U G79A A86G A90G	0.08
A51U A94G U122C	1.52
U9C A23G C112G A117G	0.02
U2A A24G A95G	1.23
A33G A56G A94G A96G	0.98

Variant	self-cleavage
C6U A54G U130C	0.65
U2C U19A A67G A78G U139C	0.32
A23G A66G A116U A129G	0.21
A33G A36G A64U A91U U102A A126G	0.53
A5G A30U U127C	1.12
U37C A92G A110G	0.1
A66G U103C A125G	0.25
A11U A22G A60G A78U A86G U100C	0.51
U57C A90G A118G	0.28
U38A U57C A69G	1.54
A30C U37C A96U A110G	0.11
C10U A69G U70C A78G A94G	0.11
A62G A110G U131C	0.1
A11G U49C A69G C85U U100C	1.32
A51U G75A A86U	0.04
U26A A67U A95G	1.81
A33U U43C U131C	1.14
A22U C32U U102C	1.14
U19A A66G A111G U120C	0.02
G20A A67C G79C U122C	0.06
A62U G79A A117G	0.15
U12C A55G A56U A118G A135G	0.16
A68U A69G U122C	0.73
A4G U38C A51G A89U	1.18

Variant	self-cleavage
A59G A95G U122A A126G	0.93
U9C A18G U37C U120A U132C	1.8
U37A A56G A117U G136A	1.31
U2C U12C G48A A54G	1.15
U9G U49A U108C A126G	0
U39A A52U A60G A110G	0.19
U9C A59G U72C	0.26
U2A A22G A64G	0.21
U9C A51G G106A A117U U139A	0.01
U38G C46U A60G C61U A67G A89G	1.61
A69G A114G U122C U130C	0.03
C17U A63G A135G	1.92
A98G U102C A135U	0.35
U12C A54G A94G	1.49
U38C A91G A95G	1.6
U49A G123A U132C	0.9
A27G C40A U130C	0.53
A11U A51G A60U	1.67
G8A U9C A64G A135G	0.87
U9A A92G A117U	1.02
U9G U57C C105U A117G	0.03
U9C G80U U127A U130C	0.16
A66U A67U A96G	1.78
A23G A56G U87C C121A	2.54

Variant	self-cleavage
A5G A24G A27U A59G A63U A135U	0.11
A11G A52G U57A A114U	0.06
A5U A63G A96G	1.42
A55G A110U A116G	0.33
U43C A56G A82G A95G A117G U127A	1.63
U12C U49A A117G	0.83
A66G A82G U100C U102C	2.56
A60G A117G U132C	1.53
U72A G74U A116U A117U	0.01
A60G A63G U102C A117G A118G	1.83
U43A A51G A116G	0.26
A18G U38A A67G G83A A91G A95G U102C U124C	0.22
A23G U87C U122C	0.59
A5G A11U U38C A78U U102C	0.86
A68G U87C U127A U131C	0.85
G31A A56G A78G U131G U132G U139C	0.02
A24C U43C A52G	0.88
A24G A27G A86G A95G	1.38
A52U A59G U70C A90G U124A	0.19
A54U A78G A92G A96G	0.27
A13U A68G A114G	1.1
A11G A33U A36G A67G U132C	0.87
A60G G106C A126U U127A U131C A135G	0
U87A A110G U130A	0.05

Variant	self-cleavage
A33G U100C A126G A129G	1.45
U57C A63G A68G U70A A126G	0.13
A56G A59G A95G U103C A110G A116G	0.03
A63G A67G A78G	0.23
A24U U49C A90G	1.14
A36U A47U A66G A129U	0.12
A33G A63U A67G A69G U70C	0.13
A55G U72G C85A	0.14
U57G U122C U132C	0.91
A24G U49G A89G A114U A117G	0.03
A13G A23G A135G	1.05
C76U U87C A126G A135G U139A	0.05
C10U U43A G84A	0.88
U39A A67G A116G	1.18
A67G A82C A95G	0.19
A36G U72C A118G	0.12
A94G U103C U127C	0.3
A5G A24G G53U U72A U103C A118G	0.06
A56G A95G U130C	1.56
A18G A52G C107U A111U	0.01
U19C A126U U132A	1.1
U3C A63G A68C A110G A129G	0.22
A23G A59G A86U	1.61
U2C U37C A67U U102C U103C	0.11

Variant	self-cleavage
A24U A92G U120C	0.46
A27U A55G A117G	1.68
A78U U87C U102C	1.75
A33U A69C U108A U122C	0.02
A22G A64G U132G	1.75
G29A A69G A91G C105U	0.06
U38C U49A A52G A69C U70A	0.77
A11G A66G A67G A111G A116G	0.04
U2A U39C U43C A114U	0.05
U9C U12C A89G U100C	0.92
U37C A55G A86G U87C A90U U122C	0.11
U19A A22G A89G U108A	0.1
U43C A66U U70C U87C A95U G123U	0.16
A60G A64G A118G	0.91
A22G G106U U120C A129G	0
U38C U43C C46A A68G	1.37
U26C A69G A90G	1.42
A78U A90G A92G G137U	0.26
G15A U57C A114G	0.09
A24C C34U U97C	0.71
U2A A52C U72G C81U	0.34
U9C A91G A96G A134G	1.81
A67G A68G C81U	0.2
A52G A67G A78G	0.56

Variant	self-cleavage
U12C U108C U120C U139A	0.01
U19A A23U U57C A114G	0.21
A22U A69G C85G A89C A95U A114C	0.01
A33G A91G U122C	0.13
C6U A63U A90G A129G	0.23
U2C U72C A86C	0.22
A66G U72A G123A	0.39
A63G A95G C112U U122C U132C	0
A27G A60G A95C U100C A125G	0.14
A4G A60U A68U A69G A110G A118G	0.24
A11U A13G A67G U100C U131C	1.8
U39C U49C A63G G83A A90G U102C A110G	0.04
A55U U103G A117G A129G	0.01
A30G A68G A90U	1.02
A54G A64G A69G A96G A135G	1.47
A30U U57C A62G A66G U72G	0.17
A27U U131A A140U	0.9
A11U G41C A62G A67G A117U	0.61
G31U A92G U108C U132A	0.02
U38A A86G U130C	1.26
U2C A52C A66G	1.1
C42U A55G A68G U122C	1.14
A24G A60U A116U	0.43
